Reference: the supplement of paper PMC3334620
In all, about 33,000 sequences were measured (“E-score (-0.5 to 0.5)”: median about -0.021, highest 2% from about 0.32 on). Some of the results follow.

Molecular target: T1, Zap1 (UniProt P47043)
T1 sequence: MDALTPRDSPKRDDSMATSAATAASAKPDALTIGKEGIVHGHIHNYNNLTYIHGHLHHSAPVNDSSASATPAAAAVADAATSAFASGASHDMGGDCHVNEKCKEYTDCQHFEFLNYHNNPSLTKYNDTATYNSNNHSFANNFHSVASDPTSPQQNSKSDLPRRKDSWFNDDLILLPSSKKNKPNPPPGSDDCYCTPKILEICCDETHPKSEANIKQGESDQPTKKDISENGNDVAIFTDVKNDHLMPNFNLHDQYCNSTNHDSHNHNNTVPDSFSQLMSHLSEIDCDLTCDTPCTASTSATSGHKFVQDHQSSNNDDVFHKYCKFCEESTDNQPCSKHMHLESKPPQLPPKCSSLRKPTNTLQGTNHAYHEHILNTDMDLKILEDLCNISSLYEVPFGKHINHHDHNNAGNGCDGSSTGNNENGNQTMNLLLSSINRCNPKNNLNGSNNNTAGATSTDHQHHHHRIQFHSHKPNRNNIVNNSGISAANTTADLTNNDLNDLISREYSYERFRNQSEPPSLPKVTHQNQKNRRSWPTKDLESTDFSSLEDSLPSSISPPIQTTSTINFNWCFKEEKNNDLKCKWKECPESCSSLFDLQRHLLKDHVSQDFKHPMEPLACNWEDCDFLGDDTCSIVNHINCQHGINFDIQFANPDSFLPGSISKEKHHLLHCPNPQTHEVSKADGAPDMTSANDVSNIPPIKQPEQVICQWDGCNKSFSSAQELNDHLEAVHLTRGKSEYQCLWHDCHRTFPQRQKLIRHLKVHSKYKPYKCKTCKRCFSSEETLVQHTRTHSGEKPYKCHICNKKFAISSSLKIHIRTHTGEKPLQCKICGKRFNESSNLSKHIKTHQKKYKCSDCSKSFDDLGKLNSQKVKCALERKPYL
Experiment: PBM E-score (8-mer binding enrichment) (E-score (-0.5 to 0.5)); higher = stronger / more preferred TF binding; most listed sequences are background and not binding sites
Conditions: protein concentration: 200 nM; construct: GST-full length
Outline: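 Each ungapped eight-base word and its reverse complement, pooled, received an E-score from the Universal PBM Analysis Suite. Underlying scans, normalised with masliner, recorded fluorescent anti-GST bound to GST-tagged yeast transcription factors. These were applied at about 100-200 nM to universal all-10-mer Agilent arrays double-stranded by primer extension.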

| Sequence | PBM E-score |
| --- | --- |
| ATCACTCG | -0.0731 |
| AGCTGCAG | -0.109 |
| CCTAAAGG | 0.274 |
| GTTTTAGA | 0.0545 |
| AGACTGCA | -0.135 |
| AGCAGGTC | 0.0487 |
| ACAATTGA | 0.0986 |
| ACGCAGAA | -0.0213 |
| GTTTAAGA | -0.0185 |
| ACCGCAGC | 0.0473 |
| CTCTCAGC | -0.273 |
| AGTTTGAA | 0.1 |
| CCCGCTCG | -0.152 |
| AGATTAAC | 0.106 |
| ATACCAGG | 0.172 |
| CCACGGGC | -0.123 |
| ATAGTACG | 0.0877 |
| ATTGGACA | 0.146 |
| CAATGATC | -0.00842 |
| AAGCCAAG | -0.0223 |
| CATCGATG | 0.268 |
| CACACGGA | -0.104 |

| Sequence | PBM E-score |
| --- | --- |
| GGGCTACC | 0.0784 |
| CTGCGACA | -0.0281 |
| AGCTCTAA | 0.107 |
| CTCAAGAG | -0.0685 |
| AGACACCT | -0.131 |
| CACTAATA | 0.148 |
| AGCATGCA | -0.207 |
| ATATTGTA | 0.133 |
| CCTTACCG | 0.285 |
| ATGTAGAC | -0.184 |
| ATAGTTAG | 0.19 |
| GTATTGTA | 0.028 |
| TAGGATGA | -0.031 |
| CACGTGCG | -0.155 |
| CACCTCCA | 0.0381 |
| TAACAACA | 0.166 |
| CTTGTTGC | -0.0552 |
| ATTAGCCG | -0.0639 |
| ACCATAGC | 0.0843 |
| AAAAATTC | 0.0351 |
| ACACGTTA | 0.0252 |
| AAAAGCAC | -0.105 |

| Sequence | PBM E-score |
| --- | --- |
| ATAATCAG | 0.0352 |
| CATGGGTA | 0.312 |
| CGTATGAC | 0.16 |
| GTCTGGTA | 0.146 |
| GGCTCGAA | -0.29 |
| TCTACCCA | 0.042 |
| GATGAAGC | -0.0197 |
| GAGGACCC | 0.0553 |
| CCGCTGTC | -0.125 |
| CACGTAAG | -0.188 |
| AAGCCTGC | -0.182 |
| TATACCGA | 0.0956 |
| CCAGCAAA | 0.0791 |
| ATTGACAA | -0.0303 |
| AAATACTA | 0.217 |
| AAATTTGC | -0.0283 |
| AGGGGCGG | 0.0331 |
| ATAGCTGG | -0.111 |
| ACCTAGCG | -0.134 |
| CAATAGGG | 0.193 |
| CGAGTCCC | -0.0387 |
| AAACCCAC | 0.189 |

| Sequence | PBM E-score |
| --- | --- |
| ACATTGTC | 0.0192 |
| ACAATAAT | 0.165 |
| CGACCTCG | 0.131 |
| TCACGAGA | -0.106 |
| CACTCCTG | -0.154 |
| ACTGAAGC | -0.00667 |
| GCACCAGA | -0.0904 |
| AGCCGCAA | -0.0728 |
| CCGCTTTC | -0.0504 |
| GGGCTTCA | -0.177 |
| ATAGTCAG | -0.132 |
| CAAACGCG | -0.0415 |
| AATTAACG | 0.0584 |
| GCGTTAGA | -0.14 |
| ATTACCTC | 0.32 |
| AACGCGAC | -0.146 |
| ATGCAAAG | -0.0952 |
| TGCCGACA | -0.162 |
| TACAAGCA | -0.0534 |
| CCATTGTA | 0.116 |
| AATGCACT | -0.0483 |
| CCCGAAAC | 0.073 |

| Sequence | PBM E-score |
| --- | --- |
| ACGTATAT | -0.133 |
| ATCTGGTC | 0.0918 |
| TGATGCAA | 0.0286 |
| GACAAACA | -0.0271 |
| ACCCGGAA | 0.307 |
| CATCCCCG | -0.075 |
| TATTTAGA | 0.168 |
| GTCTAGAA | 0.0226 |
| CTGAAGGC | -0.056 |
| CAAAATTC | 0.0877 |
| ATGATAGC | 0.107 |
| AAAGCCCA | -0.0779 |
| GAAAGTCA | -0.0232 |
| AAGAATTA | -0.00623 |
| GGATGCGA | -0.271 |
| CTTATCAC | -0.0236 |
| AGGAAACT | -0.132 |
| ATTCCATC | 0.00145 |
| ACCCTATA | 0.354 |
| GGCCTTAC | -0.07 |
| AAAGATAA | 0.216 |
| CGGGCGGA | -0.101 |
